# In publication PMC10726135:
# Some of the results follow. At the low end of the ranking the order means little. The protein was read in a cell extract, so binding may be indirect.
# Target: T1, HNF4alpha2 (COS-7 nuclear extract) (UniProt P41235)
# T1 sequence: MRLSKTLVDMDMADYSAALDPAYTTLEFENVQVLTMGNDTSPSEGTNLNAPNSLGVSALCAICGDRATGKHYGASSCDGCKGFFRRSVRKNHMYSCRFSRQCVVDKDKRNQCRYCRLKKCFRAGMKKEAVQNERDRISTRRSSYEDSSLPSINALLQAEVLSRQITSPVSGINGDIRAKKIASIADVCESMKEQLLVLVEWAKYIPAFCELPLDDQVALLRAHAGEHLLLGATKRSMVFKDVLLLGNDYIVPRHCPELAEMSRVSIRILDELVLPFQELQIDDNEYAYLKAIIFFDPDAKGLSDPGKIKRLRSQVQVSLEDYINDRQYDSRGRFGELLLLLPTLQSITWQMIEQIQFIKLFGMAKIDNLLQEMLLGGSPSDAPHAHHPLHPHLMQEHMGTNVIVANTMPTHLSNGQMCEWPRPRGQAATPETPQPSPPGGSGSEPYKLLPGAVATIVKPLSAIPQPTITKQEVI
# Assay: protein-binding microarray
# Conditions: COS-7 nuclear extract on double-stranded Agilent 4x180k PBM; binding buffer, salt, pH and temperature not given; high values mean tight binding; double strand, one strand shown; sequences stand for … in …GCCTAGGGAGATTAGAGTATCGGTCGA
row,Sequence,binding signal (log2 normalized intensity)
1,GTCCAAGTTGGTGAGAACAGAGTCTCCGAG,0.206
2,AATAATTTGAAGTTTAGAGATGCCTATAGG,0.625
3,CAGTGCTGACCTACCTGACCTGGCATACTA,-1.02
4,CCCACAGTGCATCTGATAAGGTTGTTAAGT,1.79
5,AACAATGCAAGATAAAAGTGAGCAATGCTG,-1.25
6,GCAGGCAGAGGAACAGAGGGGTCTGAGCAC,-1.12
7,GAAGAAGTCATCCATCATTCATACATTTGC,0.488
8,TGGAGTTAGCTGTCTTTCTGATAAGATTGG,1.11
9,AAGGGATCAGAAATTGATTTGTAACCTGCA,0.445
10,ATTTGTGAAGGTGAATTTCAAGAATCTAAT,-0.602
11,CCATTTTGGACTTTGACCTCCAAAATTATA,10.4
12,GTCACAGCCTGGTTCTTGTAGGCCCCTGTG,0.117
13,TTCTCTCAACCTCTCTGGGGGATGGGTCCA,2.62
14,AAAGGGAATTTTGGACAAGGTAACCCCCAA,3.9
15,GCTGCCAAGCGTCAGTCATACAGAGCTGTC,-1.13
16,CAAAGTTCAAGGTCCAGCCTACCCACCCAC,4.66
17,GGCCCTTTGCAGCCCGAGCTGCTGGAACAG,-1.15
18,ATGCAACCTTTGTCCTCATTGAGCCCTCCC,3.55
19,GGTGAAGGATGGAATGCTGAAGGGAAGGCT,-0.887
20,TAAGCAAACATTCCTCCCTCCCTCTTCCCT,2.6
21,GAAGTACAACTTCAGCAATGAAAGATGTTT,-0.299
22,GGTGAGGGTGAGGGTGAGGGTTAGGGGTTA,-0.0851
23,CTTTCAGCCTCTCTGCAAACATTTATTTTG,0.367
24,AGGACCTGACATTCTCCACTTGGTGACTGT,0.935

row,Sequence,binding signal (log2 normalized intensity)
1,GAGATCAGGTCTCTTTTATGTACCACCGTA,0.641
2,GAGGGTAACAATGCTGATGGGGACCACAGA,-0.887
3,ATAGCTCAGGTCCAAGGAACCTCACGCGCT,-1.02
4,GTCGACCTTTAAACGTTTGCTGGATCAGCA,1.64
5,TTATGATATGAAGCATTGCTTGAGTCACTT,1
6,TTTGAAGGTTAAAGTCCATTTTTGAGGACC,5.44
7,CAAGTGCCAACAAACTCAATCCTGGCCTCT,-0.92
8,TGCTGTGTGTGTGTGTGTGTGTGTGTGTGT,3.59
9,GGAGGTTCTTGTTTAATTCTTTTCAACTGG,1.57
10,AGTATATTGGCTTGGCTGTGTCCCTTGACC,3.04
11,ACTGGGGATAGAATCAAAGGTCAGGAATCG,3.29
12,CGCCAGCGCCCCCGTGTGGCCGCGAGCACC,2.59
13,CGGTCAGCTGCTTGACTTAGTACATGGCCT,0.557
14,ATGGCCAGCCTTTGGACTTTGAACTGCAAC,9.66
15,GAGATCAGGATACCAAGGCTCAGAGGTCAA,3.16
16,AACTGGGGGCATAGCCCATGCAAATACTCG,-1.16
17,TGTCACACTGGCCTTTGCCCTCGCTGGCGG,4.25
18,AATCCCTTAGGCTTTTGCACTTTACTCAGA,3.14
19,TGGGGCAGGGAAATATGTTCCACCCAGGGT,-1.04
20,TAACCTTCTGCTGGATGCCCAGGGATTCCT,-1.08
21,GAATGGCCAGAGTTCCTGTGCAAGCCCCTG,-0.332
22,GCTGATGGGACCAAAGGTGAAGGGGTCACC,3.37
23,TGAAACTCAGCATACAATGAATATTCAGAC,-1.09
24,GTTGAACCTCTGTCCTTGGCCTCACAGACA,-1.14

row,Sequence,binding signal (log2 normalized intensity)
1,TTATCCCTCACAATCTTAAGATAAGGTCTT,0.338
2,GATGTTTAGCTATCAGTGTTGACCTCTGGA,5.32
3,TCGGGATTATGGTAGGCAGCCTCTGAGATG,-0.0677
4,TTGACCGCTGCCTCCCACCCCCACGGTGCG,5.29
5,AGTAACAGGGCACATGTACACAGGAATATC,-1.05
6,CATGGTGACTCTAGTCAATGTATTTTATTC,1.06
7,CTGGCTTCCCTTTGATCTTTCCCTTCCTGG,2.01
8,TTTAGGGTAGCCTGGGTTAAAGTCCGTTAC,4.55
9,CCCGTGTGGCCGCGAGCACCGCGCGCGCAA,-1.05
10,CACACTGGGAATTGGGATGGCAGCTTCATT,-0.852
11,CAAAACTGGAAATTCACGTCATTTTGTCAC,0.954
12,ACCCAGTCTTAGGGACTAAGCTTGTAGACC,-1.11
13,TATCTCCTCTGTAGGGCAGCAGCCGGCCTC,-1.03
14,CTGAATCTCCCAGTGCTTTGATCTTCAACT,-0.689
15,TTTCCCAACAGGTGTTAAAATAACGACCTT,2.26
16,CCACACTGGTAACCTTTAGTCTCCAGATAA,2.3
17,GCAAGGCATGGTGCTTCGCACTTCAGCACC,0.783
18,ATTATCTTTATTATCCCAGTAGAGAAACAA,0.68
19,AAGGTGGAACTCAAGATAGTTCAGCCATCA,-1.1
20,CAGCTTGATAATCCCCATGGGACCAATACA,-1.01
21,TTTGCACTTGTTTTTTCAGGTGTTGCTCTC,1.67
22,GTCCTACAGGACATTAATCAGTCGCGTATC,-1.32
23,TCCCCACGTGGCAATCATTCTGTCTGCCTT,-1.04
24,AGAATTACAAACAGCCCTGACATTCTTGAG,-0.854
